Assay results published in publication PMC12040169 (PLOS Biology, 2025).
This is one part of the list.

Tested on: T1, C. trachomatis L2/434/Bu expressing GFP (CTL2-GFP)
T1 construct: L2/434/Bu GFP intracellular growth in HeLa cells
Parameters: species or system HeLa; C. trachomatis total inclusion area by high-content imaging, normalised to DMSO
Conditions: total inclusion area; 28.5 h, 10 µM; inhibitor
In short: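 Imaging read-out: GFP inclusions and Hoechst nuclei captured by high-content imaging after fixation. Inclusion area/number = chlamydial growth; nuclei count = host cell viability. MIC calculated per earlier method.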

| SMILES | % of control remaining |
| --- | --- |
| Cc1cc(NS(=O)(=O)c2csc3ccccc23)n(C)n1 [CBK067251] | 105.299 |
| Cc1cc(C(=O)Nc2cccc3cc[nH]c23)ccc1Cl [CBK160078] | 100.661 |
| CC1(C)CC(N2CN(C3CC(C)(C)NC(C)(C)C3)CN(C3CC(C)(C)NC(C)(C)C3)C2)CC(C)(C)N1 [CBK261985] | 99.804 |
| COc1ccc2c(C)c(C(=O)NC(C)Cc3ccccn3)oc2c1 (stereo not drawn) [CBK281424] | 99.0279 |
| CN1CCN(CCCCn2nc3n(c2=O)-c2ccccc2OC3(C)C)CC1 [CBK023953C] | 56.7491 |
| Cc1nc(-c2ccc(NC(=O)Cc3sc(C)nc3C)cc2)cs1 [CBK281404] | 50.887 |
| O=C1CCC(CNS(=O)(=O)c2ccccc2Cl)N1 (stereo not drawn) [CBK304850] | 30.8157 |
| COc1ccc(Cl)cc1N1CCN(Cc2cc(OC)c(OC)c(OC)c2)CC1 [CBK126406] | 11.9082 |
| COc1cc(S(=O)(=O)NC2CC(C)(C)NC(C)(C)C2)ccc1F [CBK266561] | 95.481 |
| Nc1nc(=O)n([C@@H]2O[C@H](CO)[C@H](O)C2O)cc1CO (stereo partly drawn) [CBK201160] | 107.488 |
| Cc1cc(C)n(CC(O)CN2C(=O)NC(C)(C)C2=O)n1 (stereo not drawn) [CBK264811] | 98.9081 |
| Cc1ccc(C(=O)NCc2cccc(COCc3ccco3)c2)cc1F [CBK297750] | 89.0805 |
| Cc1cc(COC(=O)N2CCC(CO)CC2)cc(C)n1 [CBK200152] | 94.4493 |
| Cc1ccc(C(=O)C(OC(=O)c2cc(O)nc3ccccc23)c2ccccc2)cc1C (stereo not drawn) [CBK265515] | 99.2903 |
| CN1C[C@@H](C(=O)N2CCCCCC2)[C@@]2(CCc3ccccc3C2=O)C1 [CBK284590] | 71.3417 |
| CCc1ccc2c(c1)C(CCNC(=O)c1ncoc1C(F)(F)F)C(=O)N2 (stereo not drawn) [CBK304725] | 83.1546 |
| Cn1c(-c2ccccc2O)n[nH]c1=S [CBK014577] | 45.3291 |
| Cc1ccc(NC(=O)C2CC(=O)Nc3nc4ccccc4n32)cc1 (stereo not drawn) [CBK288134] | 93.6929 |
| Cc1cccc(-n2c(CCc3ccccc3)nnc2SCC(=O)c2ccccc2)c1 [CBK266369] | 136.395 |
| COc1ccc(-c2cc[nH]n2)c(OC)c1OC [CBK022957C] | 86.4351 |
| Fc1cccc(-c2nnc(SCc3nc4ccccc4[nH]3)n2-c2ccccc2)c1 [CBK263256] | 101.878 |
| CN1CCC(N(C)C(=O)NCCOc2ccccc2)C1 (stereo not drawn) [CBK156018] | 63.7776 |
| CN1C(=O)CC2(C1=O)C(=O)N(CCN1CCCC1=O)c1ccc(F)cc12 (stereo not drawn) [CBK075463] | 98.751 |
| COc1ccc(CC(=O)N(C)CCN2CCCCC2)cc1C [CBK282728] | 134.928 |
| CN(Cc1ncc[nH]1)C(=O)c1cn(Cc2cccc(C(F)(F)F)c2)nn1 [CBK306768] | 93.1754 |
| O=C(CSc1ncnc2scc(-c3ccc(Cl)cc3)c12)Nc1nsc(-c2ccccc2)n1 [CBK266473] | 116.778 |

| SMILES | % of control remaining |
| --- | --- |
| CC1(C)Cc2nc(N3CCOCC3)ncc2C(NC(=O)C2CCCC2)C1 (stereo not drawn) [CBK307687] | 57.9123 |
| O=[N+]([O-])c1ccc(CSc2nnc(-c3cnccn3)n2Cc2ccco2)cc1 [CBK267585] | 95.5437 |
| Cc1ccc(F)c(NS(=O)(=O)Cc2ccccc2)c1 [CBK038438] | 86.9146 |
| Cc1cccc(C(C)(C)C)c1NC(=O)N1CCC(Cc2ccccc2)CC1 [CBK043962] | 67.2649 |
| Nc1ncc(-c2ccc(OC(F)(F)F)cc2)nc1-c1ccc(O)cc1 [CBK122506] | 92.1377 |
| COc1ccc(Cc2nc(CCNC(C)=O)n(CC(F)(F)F)n2)cc1 [CBK307287] | 47.4439 |
| CC(Oc1ccccc1)C(=O)NCCCc1ccccc1 (stereo not drawn) [CBK264060] | 99.2343 |
| C[C@@H](Nc1cncc(-c2cccc3ccccc23)n1)c1ccccc1 [CBK065646] | 99.9636 |
| O=C(Cc1ccccc1[N+](=O)[O-])NNC(=S)Nc1ccc(F)c(Cl)c1 [CBK266904] | 101.816 |
| C[C@@H](Cn1nc(-c2cccs2)oc1=O)NC(=O)C1CCCC1 [CBK284337] | 67.884 |
| CN(C)CCN(C)c1nc(-c2cc(C(F)(F)F)cc(C(F)(F)F)c2)cn2ccnc12 [CBK037971] | 111.868 |
| CC(=O)Nc1cccc(C(=O)N(Cc2ccccn2)CC2CCCO2)c1 (stereo not drawn) [CBK306867] | 54.395 |
| C[C@@H](Nc1cncc(-c2ccc3c(c2)OCO3)n1)c1ccccc1 [CBK065954] | 94.1378 |
| Cc1ccc(S(=O)(=O)n2nncc2C)cc1 [CBK001921] | 61.5481 |
| CC(C)[C@H](CO)Nc1nccnc1-c1ccc(C(=O)N2CCOCC2)cc1 [CBK037012] | 136.595 |
| COc1ccc([C@@]23CC[C@@H](CNC(=O)c4ccc(C(F)(F)F)cc4)C[C@@H]2N(C)CC3)cc1OC [CBK042195] | 87.999 |
| CSc1ccccc1C(=O)N1CCN(S(=O)(=O)c2sc(C(=O)O)c(C)c2C(=O)O)CC1 [CBK297149] | 80.8841 |
| CCOC(=O)CCCCNC(O)C(Cl)(Cl)Cl (stereo not drawn) [CBK261003C] | 97.1209 |
| C[C@@H](Nc1cncc(-c2ccncc2)n1)c1ccccc1 [CBK066055] | 102.577 |
| O=C(O)CCC(=O)Nc1ccc2c(c1)oc1ccccc12 [CBK261597] | 101.941 |
| O=C(NC1CCCCC1)O[C@@H]1CO[C@H]2[C@@H]1OC[C@@H]2Nc1nccc(-c2cccs2)n1 [CBK289514] | 97.7794 |
| O=C(O)CCSc1nc(-c2ccccc2)c(-c2ccccc2)n1-c1ccccc1 [CBK264837] | 88.1581 |
| C=CCN1C(=O)CC2(C1=O)C(=O)N(C)c1ccc(OC)cc12 (stereo not drawn) [CBK075158] | 102.354 |
| O=C1CN(c2cccc(C(F)(F)F)c2)C(=O)N1c1ccc(Cl)cc1 [CBK122769] | 85.0118 |
| CN(C)CCNc1c(N)c(=O)oc2ccccc12 [CBK261472] | 101.829 |
| Cc1ccc(NC(=O)CSc2nnc(C(O)c3ccccc3)n2-c2ccccc2)c(C)c1 (stereo not drawn) [CBK266072] | 96.72 |

| SMILES | % of control remaining |
| --- | --- |
| CC(=O)NCC1CCC2(CCN(c3nc(C)nc(C)c3C)CC2)O1 (stereo not drawn) [CBK307404] | 75.8711 |
| CCNC(=O)N(C)C1CCN(c2ncnc3ccccc23)CC1 [CBK305537] | 92.2772 |
| CSc1sc(NC(=O)Nc2cccc(C(F)(F)F)c2)cc1C#N [CBK017114] | 58.3705 |
| O=C(/C=C/c1cn(-c2ccccc2)nc1-c1cc2ccccc2oc1=O)NCc1ccccc1 [CBK266530] | 117.787 |
| Cc1n[nH]c(O)c1C(c1ccc(OC(=O)c2ccccc2Cl)cc1)c1c(C)n[nH]c1O [CBK264520] | 113.649 |
| Cc1cn(C2CC(O)C(CN=[N+]=[N-])O2)c(=O)[nH]c1=O (stereo not drawn) [CBK201256] | 101.331 |
| CCN(CC)CC(=O)Nc1sc2c(c1C#N)CCCC2 [CBK261646] | 98.7671 |
| CC(=O)c1c(-c2ccc(C)cc2)nc2n(CCN3CCCCC3)c3ccccc3n12 [CBK278231C] | 84.7549 |
| O=C(Oc1cccc2cccnc12)c1cc(S(=O)(=O)N2CCOCC2)ccc1Cl [CBK263210] | 115.854 |
| COCCNC(=O)c1cc(C2CC2)nc2c1cnn2C(C)C [CBK306099] | 49.5211 |
| Cc1c(-c2cc(C(=O)NC(C)C3CC4CCC3C4)no2)cnn1C (stereo not drawn) [CBK281653] | 72.4205 |
| CNCC1CCN(C(=O)c2ccc(Oc3cccnc3)cc2)C1 (stereo not drawn) [CBK304697] | 126.401 |
| CCn1cc(CN2CCC(O)(c3ccc(C)cc3)CC2)c(C)n1 [CBK282955] | 104.413 |
| Cc1nc2c(c(=O)[nH]1)CCN(C(=O)c1cc3c(s1)CCC3)C2 [CBK283751] | 51.481 |
| O=C(CN(c1ccccc1)S(=O)(=O)c1ccc(F)cc1)Nc1ccc(Cl)c(Cl)c1 [CBK268740] | 99.2254 |
| Cc1cc(NC(=O)NC2CC3(CCN(C)CC3)Oc3ccccc32)no1 (stereo not drawn) [CBK305059] | 46.1274 |
| COc1ccc2[nH]c3c(c2c1)CCN(C(=O)CNCc1ccc(OC)c(OC)c1)C31CCN(CCOc2ccccc2)C1 (stereo not drawn) [CBK076736T] | 61.1305 |
| CC(=O)N1CCC2(C/C=C/C[C@H]3CN(CCCc4ccccc4)CC[C@H]3NC(=O)CNC2=O)CC1 [CBK292140] | 95.5779 |
| Cc1cccc(NC2(C(F)(F)F)NC(c3ccccc3)=NC2=O)n1 (stereo not drawn) [CBK267476] | 102.194 |
| Cc1oc(CSc2nnc(NCc3ccc(F)cc3)s2)cc1C(=O)O [CBK296629] | 102.673 |
| COc1ccc(OC(=O)N2CCC3(CC2)CC(=O)N(Cc2ccc(S(C)(=O)=O)cc2)C3=O)cc1 [CBK155952] | 66.7363 |
| CCn1c(=O)n(CC(=O)NCCc2ccccc2)c2cccnc21 [CBK283812] | 91.8187 |
| CC(C)(C)c1ccc2c(c1)C(CCCCN1CCCC1)(c1ccccc1)C(=O)O2 (stereo not drawn) [CBK017654C] | 22.582 |
| COc1ccc(-c2nc(COC(=O)c3cccnc3N)cs2)cc1OC [CBK296741] | 73.5246 |
| O=C(Nc1cccc(C(=O)O)c1)/C(=C\c1ccccc1)NC(=O)c1ccccc1Cl [CBK263710] | 101.392 |
| Cc1c(C(=O)N2CCS(=O)(=O)CC2)nnn1-c1ccc2ncccc2c1 [CBK305529] | 36.5174 |
